Measured values: PubChem BioAssay (NCATS)
Several values for one entry are separate records, joined by “and”; a condition that tells them apart may be missing. Equal entries are not always repeated. The inconclusive results got no clear call from the source; some entries with a clear call stand among them for comparison. Potencies beside an inconclusive call are fits to weak or partial responses and may not hold up. Activity calls are given as the source filed them. Calls come from the whole dose curve; as a rule, active = well fitted cell-killing curve with a large enough effect; inconclusive = small, poorly fitted or top-dose-only effect, or effect the other way; inactive = no such curve, though single readings can be large or run the other way.

Experiments:
[1] = Viability qHTS for spleen associated tyrosine kinase inhibitor (SYKi) naive MV4-11 cells (AID 1963823); settings: MV4-11 AML viability, CellTiter-Glo luminescence, 72 h; series mostly up to 45 µM; note: nearly all actives have a fitted effect of over 40% in size
How it was run: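 Viability of MV4-11 AML cells lacking prior SYK inhibitor exposure is scored by CellTiter-Glo luminescence following 72 hr compound incubation at 37 C, 5% CO2, seeded at 500 cells per well.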

[2] = Viability qHTS for spleen associated tyrosine kinase inhibitor (SYKi) drug resistant MV4-11 cells (AID 1963824); settings: SYKi-resistant MV4-11 viability, CellTiter-Glo, 72 h; series mostly up to 45 µM; note: nearly all actives have a fitted effect of over 35% in size
How it was run: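 SYK-inhibitor-resistant MV4-11 AML cells were seeded at 500 per well onto compound and cultured 72 hours (37 °C, 5% CO2). CellTiter-Glo was then added, and after 10 min at room temperature, luminescence gave viability.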
Potency is the fitted concentration of half-maximal effect; tags give direction and shape of the fitted curve.

SMILES	Potency [1]	Potency [2]
O=C1NC(=O)/C(=C/c2ccc(-c3ccc(F)cc3)o2)S1	inconclusive: 29.1 µM [cytotoxic, single point]	inconclusive: 11.6 µM [cytotoxic, partial curve, poor fit]
C/C(=C\CC[C@H](CO)[C@@H]1CC[C@]2(C)C3=C(CC[C@@]12C)[C@@]1(C)CCC(=O)C(C)(C)C1CC3)C(=O)O (stereo partly specified)	inconclusive: 7.96 µM [cytotoxic, partial curve]	inconclusive: 8.93 µM [cytotoxic, partial curve]
C[C@@H]1CCC[C@H](C)N1CCCC(O)(c1ccccc1)c1ccccn1 (stereo partly specified)	inconclusive: 4.73 µM [cytotoxic, partial curve, poor fit]	inactive
CCCC(N[C@@H](C)C(=O)N1[C@H](C(=O)O)C[C@@H]2CCCC[C@@H]21)C(=O)OCC (stereo partly specified)	inconclusive: 20.6 µM [cytotoxic, single point]	inconclusive: 14.6 µM [cytotoxic, partial curve, poor fit]
C=C1CC23CCC4[C@@](C)(CCC[C@@]4(C)C(=O)O)C2CCC1C3 (stereo partly specified)	inconclusive: 16.4 µM [cytotoxic, partial curve]	inconclusive: 6.51 µM [cytotoxic, partial curve]
CCCCc1ccc(NS(=O)(=O)c2ccc(F)cc2)cc1	inconclusive: 23.1 µM [cytotoxic, single point]	inconclusive: 23.1 µM [cytotoxic, partial curve]
C#CCN(Cc1cc2c(=O)n(C)c(CN3CCN(C)CC3)nc2cc1Cl)c1ccc(C(=O)NCc2cccnc2)cc1	inactive	inactive
C/C=C(\C)C(=O)OC[C@H]1O[C@H](O[C@H]2O[C@H](CO)[C@@H](O)[C@H](O)[C@H]2O[C@@H]2O[C@H](CO)[C@@H](O)[C@H](O)[C@H]2O)[C@H](O[C@@H]2O[C@H](CO)[C@@H](O)[C@H](O)[C@H]2O)[C@@H](O)[C@@H]1O	inactive	inactive
O=S(=O)(/N=C/c1c(O)ccc2ccccc12)c1cccs1	inconclusive: 10.3 µM [cytotoxic, partial curve, poor fit]	inactive
N#Cc1ccc2[nH]c(O)c(-c3ccc(CN4CCOCC4)cn3)c2c1	inactive and inconclusive: 16.4 µM [cytotoxic, partial curve]	inconclusive: 16.4 µM [cytotoxic, partial curve]
COc1cc2c(c(O)c1OC/C=C(\C)CC/C=C(/C)CCC=C(C)C)CN(C(CCC(=O)O)C(=O)O)C2=O (stereo unspecified)	inconclusive: 14.2 µM [cytotoxic, single point]	inconclusive: 12.6 µM [cytotoxic, single point]
OCC1=C[C@@H](O)[C@@H]2C=CO[C@@H](O[C@@H]3O[C@H](CO)[C@@H](O)[C@H](O)[C@H]3O)[C@H]12	inactive	inactive
CC[C@H]1OC(=O)[C@H](C)[C@@H](O[C@H]2C[C@@](C)(OC)[C@@H](O)[C@H](C)O2)[C@H](C)[C@@H](O[C@H]2O[C@H](C)C[C@H](N(C)C)[C@H]2O)[C@](C)(O)C[C@@H](C)C(=O)[C@H](C)[C@@H](O)[C@]1(C)O	inconclusive: 15.9 µM [cytotoxic, single point]	inconclusive: 12.6 µM [cytotoxic, single point]
CC1CCCCCCCc2cc(O)cc(O)c2C(=O)O1 (stereo unspecified)	inconclusive: 18.4 µM [cytotoxic, partial curve]	inconclusive: 20.6 µM [cytotoxic, partial curve]
C/C=C/C=C/C(CC(=O)O)Nc1ccc(C=O)cc1 (stereo unspecified)	inactive	inactive
CC(C)OC(=O)N1CCC(Oc2ncnc3c2cnn3-c2ccc(S(C)(=O)=O)cc2F)CC1	inconclusive: 4.61 µM [cytotoxic, full curve]	inconclusive: 5.17 µM [cytotoxic, partial curve]
COc1c(C)c(OCC(O)C(C)(C)O)cc2c1COC2=O (stereo unspecified)	inactive	inactive
CN(C)CCCNc1nc(CN2CCN(C(c3ccc(Cl)cc3)c3ccc(Cl)cc3)CC2)nc2ccccc12	active: 2.06 µM	active: 3.26 µM
CCc1cc2c(c(OCC(F)(F)F)c(C(=O)NC3CCN(C(=O)CO)CC3)n2C)c(=O)n1CC(=O)c1ccccc1	inconclusive: 18.6 µM [cytotoxic, partial curve]	inconclusive: 26.3 µM [cytotoxic, partial curve]
CC1=C2C(=O)C=C(CO)C2[C@H]2OC(=O)[C@H](C)[C@@H]2[C@@H](OC(=O)Cc2ccc(O)cc2)C1 (stereo partly specified)	inactive	inconclusive: 7.96 µM [cytotoxic, partial curve, poor fit]
Cc1nc(C(=O)N2CCC[C@H]2Cc2nnc(-c3ccccc3)o2)c(-c2ccccc2F)s1	inconclusive: 9.2 µM [cytotoxic, partial curve]	inconclusive: 16.4 µM [cytotoxic, single point]
CC(CO[C@@H]1O[C@H](COC(=O)/C=C/c2ccc(O)c(O)c2)[C@@H](O)[C@H](O)[C@H]1O)C1(O)COC(=O)C1 (stereo partly specified)	inactive	inconclusive: 14.2 µM [cytotoxic, single point]
COc1ccc(F)cc1-c1cc(NC(=O)[C@@H]2CCCNC2)ncc1Cl	inconclusive: 0.184 µM [cytotoxic, full curve]	active: 0.103 µM
